Results are given in words; binding and its absence hold for the method and conditions named. For some of these results: Binding seen in cells or lysates may run through a third protein. Some entries that bind do so weakly or less than the wild type. Tags and fused reporters may be left off the sequences shown.
T1: FLAG-A20 (UniProt P21580)
T1 sequence: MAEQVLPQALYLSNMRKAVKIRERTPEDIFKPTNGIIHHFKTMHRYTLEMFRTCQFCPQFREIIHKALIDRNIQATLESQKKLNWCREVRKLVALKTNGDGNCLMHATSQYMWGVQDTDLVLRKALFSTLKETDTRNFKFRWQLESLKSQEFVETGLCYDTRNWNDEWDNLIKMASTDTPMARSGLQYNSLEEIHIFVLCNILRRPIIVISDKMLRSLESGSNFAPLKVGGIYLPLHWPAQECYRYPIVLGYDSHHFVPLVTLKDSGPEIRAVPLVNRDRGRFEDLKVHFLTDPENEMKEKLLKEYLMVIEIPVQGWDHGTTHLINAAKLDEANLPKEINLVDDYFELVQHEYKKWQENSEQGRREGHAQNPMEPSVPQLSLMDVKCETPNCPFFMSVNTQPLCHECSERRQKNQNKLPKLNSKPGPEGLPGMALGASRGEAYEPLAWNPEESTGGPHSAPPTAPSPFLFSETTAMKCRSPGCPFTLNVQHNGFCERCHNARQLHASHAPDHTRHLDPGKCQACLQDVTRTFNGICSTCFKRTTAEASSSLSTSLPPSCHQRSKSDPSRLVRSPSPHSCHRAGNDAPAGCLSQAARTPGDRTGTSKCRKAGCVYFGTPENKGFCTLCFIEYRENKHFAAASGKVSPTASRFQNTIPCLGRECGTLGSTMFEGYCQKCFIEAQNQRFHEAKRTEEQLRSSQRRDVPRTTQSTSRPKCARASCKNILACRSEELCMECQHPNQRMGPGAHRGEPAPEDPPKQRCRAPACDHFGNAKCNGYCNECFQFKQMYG

T2: GST-TRIP6 mutant containing LIM3 domain (residues 398–476) (UniProt Q15654)
T2 sequence: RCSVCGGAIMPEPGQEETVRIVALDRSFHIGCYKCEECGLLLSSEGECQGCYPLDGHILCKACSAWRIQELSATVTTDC

T3: GST-TRIP6 mutant containing LIM domains 2 to 3 (residues 340–476) (UniProt Q15654)
T3 sequence: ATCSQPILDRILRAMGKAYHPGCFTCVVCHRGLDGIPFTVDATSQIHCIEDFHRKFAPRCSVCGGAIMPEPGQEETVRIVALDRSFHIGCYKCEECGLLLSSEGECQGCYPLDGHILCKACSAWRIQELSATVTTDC

T4: GST-TRIP6 mutant containing LIM domains 1 to 3 (residues 279–476) (UniProt Q15654)
T4 sequence: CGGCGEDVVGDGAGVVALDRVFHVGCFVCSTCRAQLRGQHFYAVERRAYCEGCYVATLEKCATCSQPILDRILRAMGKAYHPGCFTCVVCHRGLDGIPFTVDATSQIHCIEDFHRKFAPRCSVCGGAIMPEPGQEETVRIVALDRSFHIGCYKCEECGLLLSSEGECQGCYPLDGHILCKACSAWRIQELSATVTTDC

T5: GST-TRIP6 (UniProt Q15654)
T5 sequence: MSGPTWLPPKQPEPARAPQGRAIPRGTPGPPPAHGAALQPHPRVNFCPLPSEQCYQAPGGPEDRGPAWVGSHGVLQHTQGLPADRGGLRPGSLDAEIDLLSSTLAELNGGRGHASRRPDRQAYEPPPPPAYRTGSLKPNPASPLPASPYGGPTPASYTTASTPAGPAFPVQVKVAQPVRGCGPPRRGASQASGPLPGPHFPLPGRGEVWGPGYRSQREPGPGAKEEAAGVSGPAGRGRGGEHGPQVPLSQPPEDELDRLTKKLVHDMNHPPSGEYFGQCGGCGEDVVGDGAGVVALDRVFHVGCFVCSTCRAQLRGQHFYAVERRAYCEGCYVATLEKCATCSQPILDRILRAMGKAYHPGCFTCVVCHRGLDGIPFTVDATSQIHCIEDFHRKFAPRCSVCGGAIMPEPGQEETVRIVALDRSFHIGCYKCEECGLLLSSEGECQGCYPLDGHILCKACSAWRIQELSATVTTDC

T6: FLAG-TRIP6 (UniProt Q15654)
T6 sequence: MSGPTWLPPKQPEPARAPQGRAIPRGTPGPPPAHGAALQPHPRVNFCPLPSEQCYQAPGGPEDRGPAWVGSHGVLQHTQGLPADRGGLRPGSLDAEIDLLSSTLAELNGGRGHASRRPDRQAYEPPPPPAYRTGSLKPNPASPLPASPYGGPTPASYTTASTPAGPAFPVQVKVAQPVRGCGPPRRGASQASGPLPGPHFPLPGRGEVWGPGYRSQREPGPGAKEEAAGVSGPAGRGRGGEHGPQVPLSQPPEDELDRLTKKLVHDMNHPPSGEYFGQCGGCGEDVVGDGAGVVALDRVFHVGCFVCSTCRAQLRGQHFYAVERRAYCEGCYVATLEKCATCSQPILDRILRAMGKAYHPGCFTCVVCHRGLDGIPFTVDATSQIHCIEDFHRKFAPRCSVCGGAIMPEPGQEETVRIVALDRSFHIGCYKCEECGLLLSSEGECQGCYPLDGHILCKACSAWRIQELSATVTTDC

T7: FLAG-E52A-TRIP6 (UniProt Q15654)
T7 sequence: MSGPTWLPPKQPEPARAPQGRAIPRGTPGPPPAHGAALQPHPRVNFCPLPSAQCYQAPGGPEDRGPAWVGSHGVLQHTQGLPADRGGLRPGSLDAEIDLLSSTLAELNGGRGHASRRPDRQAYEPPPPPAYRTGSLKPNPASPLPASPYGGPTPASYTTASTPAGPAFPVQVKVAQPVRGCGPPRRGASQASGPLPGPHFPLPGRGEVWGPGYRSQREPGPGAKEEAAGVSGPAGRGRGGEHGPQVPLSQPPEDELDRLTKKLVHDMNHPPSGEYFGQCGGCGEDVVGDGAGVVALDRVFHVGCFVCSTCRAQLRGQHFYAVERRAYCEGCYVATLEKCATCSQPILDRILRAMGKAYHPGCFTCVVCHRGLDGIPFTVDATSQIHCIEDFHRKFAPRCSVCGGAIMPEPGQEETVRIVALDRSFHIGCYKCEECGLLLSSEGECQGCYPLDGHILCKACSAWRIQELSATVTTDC


Columns and labels:
FLAG-A20 = target: T1, FLAG-A20; test: pull-down; FLAG-A20 immunoprecipitated on anti-FLAG M2 agarose from LPA-treated HEK293T (RIPA buffer); beads incubated with 0.1 μg purified recombinant TRAF6 without or with 0.1 μg purified recombinant TRIP6, 4 °C, 3 h; washed four times; immunoblot; both purified
[1] = target: T2, GST-TRIP6 mutant containing LIM3 domain (residues 398–476); test: pull-down; purified recombinant TRAF6 incubated with GST, GST-TRIP6 or GST-TRIP6 fragments, 4 °C, 3 h; anti-TRAF6 immunoblot; both purified
[2] = target: T3, GST-TRIP6 mutant containing LIM domains 2 to 3 (residues 340–476); test: as above
[3] = target: T4, GST-TRIP6 mutant containing LIM domains 1 to 3 (residues 279–476); test: as above
GST-TRIP6 = target: T5, GST-TRIP6; test: as above
FLAG-TRIP6 = target: T6, FLAG-TRIP6; test: co-IP; FLAG-TRIP6 constructs co-expressed with EGFP-tagged TRAF6 domains in HEK293T; anti-FLAG M2 immunoprecipitation; anti-GFP immunoblot
FLAG-E52A-TRIP6 = target: T7, FLAG-E52A-TRIP6; test: as above

Binder	binding (FLAG-A20)	binding [1]	binding [2]	binding [3]	binding (GST-TRIP6)	binding (FLAG-TRIP6)	binding (FLAG-E52A-TRIP6)
purified recombinant TRAF6 (protein, UniProt P70196 1-530) MSLLNCENSCGSSQSSSDCCAAMAASCSAAVKDDSVSGSASTGNLSSSFMEEIQGYDVEFDPPLESKYECPICLMALREAVQTPCGHRFCKACIIKSIRDAGHKCPVDNEILLENQLFPDNFAKREILSLTVKCPNKGCLQKMELRHLEDHQVHCEFALVNCPQCQRPFQKCQVNTHIIEDCPRRQVSCVNCAVSMAYEEKEIHDQSCPLANIICEYCGTILIREQMPNHYDLDCPTAPIPCTFSVFGCHEKMQRNHLARHLQENTQLHMRLLAQAVHNVNLALRPCDAASPSRGCRPEDPNYEETIKQLESRLVRQDHQIRELTAKMETQSMYVGELKRTIRTLEDKVAEMEAQQCNGIYIWKIGNFGMHLKSQEEERPVVIHSPGFYTGRPGYKLCMRLHLQLPTAQRCANYISLFVHTMQGEYDSHLPWPFQGTIRLTILDQSEALIRQNHEEVMDAKPELLAFQRPTIPRNPKGFGYVTFMHLEALRQGTFIKDDTLLVRCEVSTRFDMGGLRKEGFQPRSTDAGV	binds	no binding	binds	binds	binds	–	–
GST-CT mutant containing residues 239–530 of TRAF6 (domain or fragment, UniProt P70196 239-530, looked up, TRAF6 carboxyl-terminal domain, residues 239-530; also called TRAF6-CT domain; carboxyl-terminal domain; source: purified recombinant GST-tagged protein (pGEX-6P3)) PIPCTFSVFGCHEKMQRNHLARHLQENTQLHMRLLAQAVHNVNLALRPCDAASPSRGCRPEDPNYEETIKQLESRLVRQDHQIRELTAKMETQSMYVGELKRTIRTLEDKVAEMEAQQCNGIYIWKIGNFGMHLKSQEEERPVVIHSPGFYTGRPGYKLCMRLHLQLPTAQRCANYISLFVHTMQGEYDSHLPWPFQGTIRLTILDQSEALIRQNHEEVMDAKPELLAFQRPTIPRNPKGFGYVTFMHLEALRQGTFIKDDTLLVRCEVSTRFDMGGLRKEGFQPRSTDAGV	–	–	–	–	–	binds	no binding
